Measured values taken from the antibiotic and cytotoxicity screens of Wong et al. (2023).
The list shows a part of the results.

test system: S. aureus RN4220; test: growth inhibition call (relative growth <= 0.2); settings: 50 µM

Growth inhibition call, inactive:
Cc1ccc(S(=O)(=O)N(C)C[C@@H]2OCCCC[C@H](C)Oc3ccc(NC(=O)Nc4c(C)noc4C)cc3C(=O)N([C@@H](C)CO)C[C@@H]2C)cc1
CC(=O)N1CCN(C)CC1
COc1ccc(CNC(=O)C[C@H]2C[C@H]3c4cc(NS(=O)(=O)c5ccc(F)cc5)ccc4O[C@H]3[C@@H](CO)O2)cc1
C[C@H](CO)N1C[C@H](C)[C@@H](CN(C)Cc2cncnc2)Oc2cc(C#CC3CCCC3)ccc2S1(=O)=O
CC(=O)O[C@@H]1[C@@H](OC(C)=O)[C@H](C)O[C@@H](O[C@H]2[C@H](OC/C=C(\C)CC/C=C(\C)CC/C=C(\C)CCC=C(C)C)O[C@H](CO[C@@H]3O[C@@H](C)[C@H](O)[C@@H](O)[C@H]3O)[C@@H](O)[C@@H]2O)[C@@H]1OC(C)=O
C[C@H](CO)N1C[C@H](C)[C@H](CN(C)CC2CCCCC2)Oc2ccc(NC(=O)Cc3cn(C)c4ccccc34)cc2C1=O
COc1ccc(NC(=O)Nc2ccc3c(c2)C(=O)N([C@@H](C)CO)C[C@@H](C)[C@@H](CN(C)Cc2ccc(C(=O)Nc4ccccc4N)cc2)O3)cc1
COc1ccc(NC(=O)N(C)C[C@H]2OCCCC[C@@H](C)Oc3ccc(NC(=O)C4CCCCC4)cc3C(=O)N([C@H](C)CO)C[C@H]2C)cc1
CO[C@H](CN(C)C(=O)Nc1ccc(C(F)(F)F)cc1)[C@H](C)CN(Cc1ccccc1Cl)[C@H](C)CO
C[C@H](CO)N1C[C@H](C)[C@H](CN(C)S(C)(=O)=O)Oc2ccc(NC(=O)C3CCCCC3)cc2CC1=O
C[C@H]1CN([C@@H](C)CO)C(=O)Cc2cc(NC(=O)CCN3CCOCC3)ccc2O[C@H]1CN(C)Cc1ccncc1
CCCC1OC2CC3C4CCC5=CC(=O)C=CC5(C)C4C(O)CC3(C)C2(C(=O)CO)O1 (stereo not given)
C[C@H]1CN([C@@H](C)CO)C(=O)c2cc(NC(=O)Nc3cccc4ccccc34)ccc2O[C@@H]1CN(C)Cc1ccccc1
COc1cc(/C=C/C(=O)N(C)CCN(C)C(=O)/C=C/c2cc(OC)c(OC)c(OC)c2)cc(OC)c1OC
O=C(O)C1(c2cccs2)CCCC1
Cn1c(=O)c2c(ncn2C[C@@H](O)COc2ccccc2)n(C)c1=O
COc1cccc(-c2cccc(-c3nc(C(=O)N[C@@H]4CCN(Cc5ccccc5)C4)cc4c3[C@H](CCO)N(S(=O)C(C)(C)C)C4)c2)c1 (stereo not given in full)
COCC(=O)N1C[C@@H](C)[C@@H](OC)CN(C)C(=O)c2ccc(NC(=O)Nc3cccc(F)c3)cc2OC[C@@H]1C
C/C=C/c1cccc(-c2nc(C(=O)NCc3ccccc3)cc3c2[C@@H](CCO)N([S@](=O)C(C)(C)C)C3)c1
C[C@@H]1CCCCO[C@H](CN(C)Cc2ccncc2)[C@H](C)CN([C@@H](C)CO)C(=O)c2cc(NC(=O)Nc3ccc(F)cc3)ccc2O1
